Source: PubChem BioAssay AID493208 (National Center for Advancing Translational Sciences (NCATS), 2011)
Hit rate of the full screen: of about 44,000 compounds, about 340 (0.77%) were called active. Not shown: some 5% with an inconclusive outcome. The call rests on the fitted dose curve; in most records, active means well fitted inhibition curve with a large enough effect; inconclusive means small, poorly fitted or top-dose-only effect; inactive means flat fitted curve, though single readings scatter. The list shows a part of the results.

Test: Acumen qHTS Assay for Inhibitors of the mTORC1 Signaling Pathway in MEF (Tsc2-/-, p53-/-) Cells: Sytravon;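 further: plate controls were DMSO for no effect and rapamycin for full effect; nearly all actives have a fitted effect of over 50% in size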
Settings: phospho-rpS6 immunofluorescence/PI, 24 h; series mostly up to 38.3 µM; activity change, negative = inhibition: at the top concentration
Outline: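 Read-out: phospho-S6 Alexa-488 intensity over PI intensity per well, scored as % active cells using thresholds from rapamycin (7.5 nM) and DMSO controls. Tsc2-/-, p53-/- MEFs exposed to compound for 24 h; PI cell count recorded as viability.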

Activity change, negative = inhibition, inactive:
Cc1cn2c(=O)cc(COc3ccc(C(C)(C)C)cc3)nc2s1 -3.61%
CC(C)CCn1c(SCc2c(F)cccc2Cl)nc2ccsc2c1=O -0.0365%
O=C(Nc1ccc(F)c(Cl)c1)C1CCCN(S(=O)(=O)c2cccc3nsnc23)C1 (configuration not stated) 3.23%
Nc1nonc1-c1nc2ccccc2n1CC(=O)Nc1ccccc1C(=O)O -11.1%
CCOc1ccccc1N(CC)C(=O)c1ccc2c(=O)n3c(nc2c1)CCCCC3 -0.151%
N#Cc1ccccc1Cn1c(SCC(=O)NCc2ccccc2)nc2ccccc21 0%
CCOc1ccc(CCNC(=O)CSCc2nc(-c3cccc(C)c3)oc2C)cc1OCC -2.9%
CN(C)S(=O)(=O)N1CCC(N2CCN(Cc3ccc(F)cc3)C(=O)C2=O)CC1 5.91%
CCc1cccc2c(-c3ccccc3)nc(SCC(=O)Nc3ccc(OC)cc3)nc12 1.89%
CCOc1ccc2nc(NC(=O)c3nc(SC(C)C)ncc3Cl)sc2c1 -2.27%
CC1CCN(C(=O)Cn2c(=O)n(-c3ccc(Cl)cc3)c(=O)c3c4c(sc32)CCC4)CC1 -3.99%
Cc1cc2nn(-c3ccccc3)nc2cc1NC(=O)Cc1ccc(Cl)cc1 4.19%
CC(C)N(Cc1ccccc1)S(=O)(=O)c1ccc(N2CCCCS2(=O)=O)cc1 0%
CN(C)S(=O)(=O)c1ccc(C(=O)N(Cc2cccnc2)c2nc3c(F)cc(F)cc3s2)cc1 -8.48%
CC(=O)N1CCc2c(sc3c2c(=O)n(CCc2ccccc2)c(=O)n3Cc2ccc(F)cc2)C1 -0.754%
CCOc1ccc(NC(=O)c2sc3nc(-c4ccc(OC)cc4)cn3c2C)cc1 -0.127%
Cc1c(Cl)cccc1NC(=O)CSc1nc(=O)n(CCN2CCOCC2)c2c1CCC2 0.114%
CCc1ccc(-n2c(CCC(=O)O)ccc2-c2cccs2)cc1 -10.5%
COc1ccc(-n2ccn(CC(=O)Nc3ccccc3C(F)(F)F)c(=O)c2=O)cc1OC 8.25%
COc1ccc(-c2nsc(NC(=O)c3ccccc3Br)n2)cc1 4.3%
COc1cc(NC(=O)C2CCCN(S(=O)(=O)c3cn(C)cn3)C2)cc(OC)c1 (configuration not stated) 0%
CCOC(=O)c1cc2c(=O)n3ccccc3nc2n(CC(C)C)c1=NC(=O)C(C)Oc1ccccc1 (configuration not stated) 18.3%
CC(=O)Nc1ccc(NCc2nnc3n2CCCCC3)cc1 2.85%
CCc1ccccc1NC(=O)CCc1c(C)nc2cc(-c3ccccc3)nn2c1C -4.68%
CCOc1ccc(NC(=O)CCS(=O)(=O)c2cc3c4c(c2)CCN4C(=O)CC3)cc1 -2.73%
Cc1ccc(Nc2ccc(N3CCN(C(=O)c4ccc([N+](=O)[O-])cc4Cl)CC3)nn2)cc1 -6.09%
Cc1nnc(N2CCN(C(=O)Nc3cc(F)ccc3F)CC2)c2nn(-c3ccc(Cl)cc3)c(C)c12 -10.7%
